# Measured values from paper PMC5216877, “Exploring conformational equilibria of a heterodimeric ABC transporter” (eLife, 2017).
# Tested on: TM287/288_E517Q^TM288
# Assay: Residual ATPase activity of E-to-Q mutant of TM287/288 in detergent
# Assay type: biochemical, Thermotoga maritima
# Conditions: TM287/288 E517Q^TM288, ATP-Mg, 25°C
# Protocol: Incubation with buffers containing the same nucleotide concentration without protein served for background subtraction in these assays.
smiles,measurement,value
Nc1ncnc2c1ncn2[C@@H]1O[C@H](COP(=O)(O)OP(=O)(O)OP(=O)(O)O)[C@@H](O)[C@H]1O [ATP],ATPase activity,0.165 ± 0.015 nmol Pi/min/mg protein
same,"ATPase activity, % of wildtype",0.192%
same,Turnover per transporter,0.0219 min⁻¹
